{"source": "the supplement of paper PMC8728848", "experiment_in_all_cases": "glycan array binding signal (z-score within array); higher = stronger binding", "conditions_in_all_cases": "glycan notation: IUPAC condensed, linker removed", "key": {"[1]": {"target": "GalNAc3S(b1-4)[Fuc(a1-3)]GlcNAc", "summary_of_the_method": "(§1)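 Columns mapping to the same glycan were averaged after glycan names were converted to IUPAC-condensed notation. The data come from 3228 arrays in the Consortium for Functional Glycomics database, limited to those with an available protein sequence. Binding is reported as a within-array Z-score averaged across arrays of one protein sequence and across linkers.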"}, "GalNAc4S6S(b1-4)GlcNAc": {"target": "GalNAc4S6S(b1-4)GlcNAc", "summary_of_the_method": "as §1"}, "GalNAc6S(b1-4)GlcNAc": {"target": "GalNAc6S(b1-4)GlcNAc", "summary_of_the_method": "as §1"}, "Glc(a1-4)Glc": {"target": "Glc(a1-4)Glc", "summary_of_the_method": "as §1"}, "[2]": {"target": "Glc(a1-4)Glc(a1-4)Glc(a1-4)Glc", "summary_of_the_method": "as §1"}, "Glc(a1-6)Glc(a1-6)Glc": {"target": "Glc(a1-6)Glc(a1-6)Glc", "summary_of_the_method": "as §1"}, "[3]": {"target": "Glc(a1-6)Glc(a1-6)Glc(a1-6)Glc", "summary_of_the_method": "as §1"}, "Glc(b1-4)Glc": {"target": "Glc(b1-4)Glc", "summary_of_the_method": "as §1"}, "Glc(b1-6)Glc": {"target": "Glc(b1-6)Glc", "summary_of_the_method": "as §1"}, "GlcA(b1-3)Gal": {"target": "GlcA(b1-3)Gal", "summary_of_the_method": "as §1"}, "GlcA(b1-3)GlcNAc": {"target": "GlcA(b1-3)GlcNAc", "summary_of_the_method": "as §1"}, "GlcA(b1-6)Gal": {"target": "GlcA(b1-6)Gal", "summary_of_the_method": "as §1"}, "[4]": {"target": "GlcA3S(b1-3)Gal(b1-4)GlcNAc(b1-2)Man", "summary_of_the_method": "as §1"}, "[5]": {"target": "GlcA3S(b1-3)Gal(b1-4)GlcNAc(b1-3)Gal(b1-4)Glc", "summary_of_the_method": "as §1"}, "[6]": {"target": "GlcNAc(a1-3)Gal(b1-4)GlcNAc", "summary_of_the_method": "as §1"}, "[7]": {"target": "GlcNAc(a1-4)Gal(b1-3)GlcNAc", "summary_of_the_method": "as §1"}, "[8]": {"target": "GlcNAc(a1-4)Gal(b1-4)GalNAc", "summary_of_the_method": "as §1"}, "[9]": {"target": "GlcNAc(a1-4)Gal(b1-4)GlcNAc", "summary_of_the_method": "as §1"}, "[10]": {"target": "GlcNAc(a1-4)Gal(b1-4)GlcNAc(b1-3)Gal(b1-4)Glc", "summary_of_the_method": "as §1"}, "[11]": {"target": "GlcNAc(a1-4)Gal(b1-4)GlcNAc(b1-3)Gal(b1-4)GlcNAc", "summary_of_the_method": "as §1"}, "[12]": {"target": "GlcNAc(a1-4)Gal(b1-4)GlcNAc(b1-3)Gal(b1-4)GlcNAc(b1-3)Gal(b1-4)GlcNAc", "summary_of_the_method": "as §1"}, "[13]": {"target": "GlcNAc(a1-4)Gal(b1-4)GlcNAc(b1-3)Gal(b1-4)[Fuc(a1-3)]GlcNAc(b1-3)Gal(b1-4)[Fuc(a1-3)]GlcNAc", "summary_of_the_method": "as §1"}, "[14]": {"target": "GlcNAc(a1-6)Gal(b1-4)GlcNAc", "summary_of_the_method": "as §1"}, "[15]": {"target": "GlcNAc(b1-2)Gal(b1-3)GalNAc", "summary_of_the_method": "as §1"}, "[16]": {"target": "GlcNAc(b1-2)Man(a1-3)[GlcNAc(b1-2)Man(a1-6)]Man(b1-4)GlcNAc(b1-4)GlcNAc", "summary_of_the_method": "as §1"}, "[17]": {"target": "GlcNAc(b1-2)Man(a1-3)[GlcNAc(b1-2)Man(a1-6)]Man(b1-4)GlcNAc(b1-4)[Fuc(a1-6)]GlcNAc", "summary_of_the_method": "as §1"}, "[18]": {"target": "GlcNAc(b1-2)Man(a1-3)[GlcNAc(b1-4)][GlcNAc(b1-2)Man(a1-6)]Man(b1-4)GlcNAc(b1-4)GlcNAc", "summary_of_the_method": "as §1"}, "[19]": {"target": "GlcNAc(b1-2)Man(a1-3)[GlcNAc(b1-4)][GlcNAc(b1-2)Man(a1-6)]Man(b1-4)GlcNAc(b1-4)[Fuc(a1-6)]GlcNAc", "summary_of_the_method": "as §1"}, "[20]": {"target": "GlcNAc(b1-2)[GlcNAc(b1-4)]Man(a1-3)[GlcNAc(b1-2)Man(a1-6)]Man(b1-4)GlcNAc(b1-4)GlcNAc", "summary_of_the_method": "as §1"}, "[21]": {"target": "GlcNAc(b1-2)[GlcNAc(b1-4)]Man(a1-3)[GlcNAc(b1-4)][GlcNAc(b1-2)Man(a1-6)]Man(b1-4)GlcNAc(b1-4)GlcNAc", "summary_of_the_method": "as §1"}, "[22]": {"target": "GlcNAc(b1-2)[GlcNAc(b1-4)]Man(a1-3)[GlcNAc(b1-4)][GlcNAc(b1-2)[GlcNAc(b1-6)]Man(a1-6)]Man(b1-4)GlcNAc(b1-4)GlcNAc", "summary_of_the_method": "as §1"}, "[23]": {"target": "GlcNAc(b1-2)[GlcNAc(b1-4)]Man(a1-3)[GlcNAc(b1-4)][GlcNAc(b1-2)[GlcNAc(b1-6)]Man(a1-6)]Man(b1-4)GlcNAc(b1-4)[Fuc(a1-6)]GlcNAc", "summary_of_the_method": "as §1"}, "[24]": {"target": "GlcNAc(b1-2)[GlcNAc(b1-6)]Man(a1-6)[GlcNAc(b1-2)Man(a1-3)]Man(b1-4)GlcNAc(b1-4)GlcNAc", "summary_of_the_method": "as §1"}, "[25]": {"target": "GlcNAc(b1-2)[GlcNAc(b1-6)]Man(a1-6)[GlcNAc(b1-2)Man(a1-3)]Man(b1-4)GlcNAc(b1-4)[Fuc(a1-6)]GlcNAc", "summary_of_the_method": "as §1"}, "[26]": {"target": "GlcNAc(b1-2)[GlcNAc(b1-6)]Man(a1-6)[GlcNAc(b1-4)][GlcNAc(b1-2)Man(a1-3)]Man(b1-4)GlcNAc(b1-4)GlcNAc", "summary_of_the_method": "as §1"}, "GlcNAc(b1-3)Fuc": {"target": "GlcNAc(b1-3)Fuc", "summary_of_the_method": "as §1"}, "GlcNAc(b1-3)Gal": {"target": "GlcNAc(b1-3)Gal", "summary_of_the_method": "as §1"}, "[27]": {"target": "GlcNAc(b1-3)Gal(b1-3)GalNAc", "summary_of_the_method": "as §1"}}, "note": "The other results are listed elsewhere or left out."}
{"binder": "Clec18C (Homo sapiens) (protein) MLHPETSPGRGHLLAVLLALLGTAWAEVWPPQLQEQAPMAGALNRKESFLLLSLHNRLRSWVQPPAADMRRLDWSDSLAQLAQARAALCGTPTPSLASGLWRTLQVGWNMQLLPAGLVSFVEVVSLWFAEGQRYSHAAGECARNATCTHYTQLVWATSSQLGCGRHLCSAGQAAIEAFVCAYSPRGNWEVNGKTIVPYKKGAWCSLCTASVSGCFKAWDHAGGLCEVPRNPCRMSCQNHGRLNISTCHCHCPPGYTGRYCQVRCSLQCVHGRLREEECSCVCDIGYGGAQCATKVHFPFHTCDLRIDGDCFMVSSEADTYYRARMKCQRKGGVLAQIKSQKVQDILAFYLGRLETTNEVIDSDFETRNFWIGLTYKTAKDSFRWATGEHQAFTSFAFGQPDNHGFGNCVELQASAAFNWNNQRCKTRNRYICQFAQEHISRWGPGS", "values": [{"measurement": "glycan array binding signal (z-score)", "setting": "[1]", "result": -0.342}, {"measurement": "glycan array binding signal (z-score)", "setting": "GalNAc4S6S(b1-4)GlcNAc", "result": 0.445}, {"measurement": "glycan array binding signal (z-score)", "setting": "GalNAc6S(b1-4)GlcNAc", "result": -0.304}, {"measurement": "glycan array binding signal (z-score)", "setting": "Glc(a1-4)Glc", "result": -0.479}, {"measurement": "glycan array binding signal (z-score)", "setting": "[2]", "result": -0.525}, {"measurement": "glycan array binding signal (z-score)", "setting": "Glc(a1-6)Glc(a1-6)Glc", "result": -0.619}, {"measurement": "glycan array binding signal (z-score)", "setting": "[3]", "result": -0.39}, {"measurement": "glycan array binding signal (z-score)", "setting": "Glc(b1-4)Glc", "result": -0.372}, {"measurement": "glycan array binding signal (z-score)", "setting": "Glc(b1-6)Glc", "result": -0.483}, {"measurement": "glycan array binding signal (z-score)", "setting": "GlcA(b1-3)Gal", "result": -0.334}, {"measurement": "glycan array binding signal (z-score)", "setting": "GlcA(b1-3)GlcNAc", "result": -0.386}, {"measurement": "glycan array binding signal (z-score)", "setting": "GlcA(b1-6)Gal", "result": -0.412}, {"measurement": "glycan array binding signal (z-score)", "setting": "[4]", "result": -0.539}, {"measurement": "glycan array binding signal (z-score)", "setting": "[5]", "result": -0.395}, {"measurement": "glycan array binding signal (z-score)", "setting": "[6]", "result": -0.449}, {"measurement": "glycan array binding signal (z-score)", "setting": "[7]", "result": -0.512}, {"measurement": "glycan array binding signal (z-score)", "setting": "[8]", "result": -0.079}, {"measurement": "glycan array binding signal (z-score)", "setting": "[9]", "result": -0.563}, {"measurement": "glycan array binding signal (z-score)", "setting": "[10]", "result": -0.535}, {"measurement": "glycan array binding signal (z-score)", "setting": "[11]", "result": -0.609}, {"measurement": "glycan array binding signal (z-score)", "setting": "[12]", "result": -0.549}, {"measurement": "glycan array binding signal (z-score)", "setting": "[13]", "result": -0.235}, {"measurement": "glycan array binding signal (z-score)", "setting": "[14]", "result": -0.165}, {"measurement": "glycan array binding signal (z-score)", "setting": "[15]", "result": -0.514}, {"measurement": "glycan array binding signal (z-score)", "setting": "[16]", "result": -0.59}, {"measurement": "glycan array binding signal (z-score)", "setting": "[17]", "result": 0.724}, {"measurement": "glycan array binding signal (z-score)", "setting": "[18]", "result": -0.577}, {"measurement": "glycan array binding signal (z-score)", "setting": "[19]", "result": -0.642}, {"measurement": "glycan array binding signal (z-score)", "setting": "[20]", "result": -0.601}, {"measurement": "glycan array binding signal (z-score)", "setting": "[21]", "result": -0.551}, {"measurement": "glycan array binding signal (z-score)", "setting": "[22]", "result": -0.586}, {"measurement": "glycan array binding signal (z-score)", "setting": "[23]", "result": -0.552}, {"measurement": "glycan array binding signal (z-score)", "setting": "[24]", "result": -0.471}, {"measurement": "glycan array binding signal (z-score)", "setting": "[25]", "result": -0.552}, {"measurement": "glycan array binding signal (z-score)", "setting": "[26]", "result": -0.425}, {"measurement": "glycan array binding signal (z-score)", "setting": "GlcNAc(b1-3)Fuc", "result": -0.583}, {"measurement": "glycan array binding signal (z-score)", "setting": "GlcNAc(b1-3)Gal", "result": -0.081}, {"measurement": "glycan array binding signal (z-score)", "setting": "[27]", "result": -0.394}]}
